Reference: PubChem BioAssay AID2100 (National Center for Advancing Translational Sciences (NCATS), 2009)
Among all 300,000 compounds or so, about 1,200 (0.4%) were called active. Inconclusive results, whose numbers are uncertain, are shown with a selection of clear calls. Calls follow the shape of the dose curve; as a rule, active = well fitted inhibition curve with a large enough effect; inconclusive = small, poorly fitted or top-dose-only effect, or another doubt; inactive = no such curve, though single readings can be large or run the other way. Where the call is inconclusive, the potency comes from a doubtful curve fit.

Target: Lysosomal alpha-glucosidase (Homo sapiens) (UniProt P10253)
Experiment: qHTS Assay for Inhibitors and Activators of Human alpha-Glucosidase Cleavage of Glycogen;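 as to activity change, negative = inhibition: 0% = full enzyme reaction and -100% = no-enzyme basal signal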
Conditions: recombinant GAA, glycogen substrate, Amplex Red glucose oxidase fluorescence; activity change, negative = inhibition: at 76.4 µM (top of the series) unless noted
Procedure, shortened: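 Recombinant human alpha-glucosidase (4 nM final) hydrolysed bovine liver glycogen (30 ug) for 40 min at 37 C in pH 5.0 citrate/phosphate with 0.01% Tween-20. Released glucose detected by glucose oxidase/Amplex Red, Ex 573/Em 610 nm. Compounds up to 77 uM; AC50 from Hill fits.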
Potency is read from the fitted curve at half-maximal effect.

Compound	Potency	activity change, negative = inhibition
CC/C(=N\Nc1ccccc1)c1c(O)[nH]c(=O)[nH]c1=O	inconclusive: 50.1 µM [inhibitor, single point]	–
COc1ccc(C(=O)C(C)(C)NO)cc1	inconclusive: 35.5 µM [inhibitor, partial curve]	–
COC(=O)C(O)(c1ccc2c(c1)CCCN2)C(F)(F)F (centres undefined)	inconclusive: 22.4 µM [inhibitor, single point]	–
CC1(C)C(c2ccccc2)=NC(c2cccnc2)N1O (centres undefined)	inconclusive: 14 µM [inhibitor, partial curve]	–
CN(C)c1ccc(/C=C2/C(=N\O)C3CCN2CC3)cc1	inconclusive: 39.8 µM [inhibitor, single point]	–
COC(=O)C(C#N)C(c1cccnc1)c1c(C)[nH][nH]c1=O (centres undefined)	inconclusive: 17.6 µM [inhibitor, partial curve]	–
O=C(NC1CCCCC1)Oc1cc2oc(=O)sc2cc1Cl	inconclusive: 25.1 µM [inhibitor, single point]	–
CN1C(=O)c2ccccc2Sc2ccc(NC(=O)N3CCN(c4ccccc4)CC3)cc21	inconclusive: 22.4 µM [inhibitor, partial curve, poor fit]	–
Oc1ccc(C[C@H]2NCCc3cc(O)c(O)cc32)cc1O	inconclusive: 1.41 µM [inhibitor, full curve, poor fit]	–
CC12CCCCC1=NC(c1ccc(Br)cc1)N2O (centres undefined)	inconclusive: 20 µM [inhibitor, partial curve]	–
COc1ccc(N/N=C/c2c(O)n(-c3cccc(C)c3)c(=O)[nH]c2=O)cc1	inconclusive: 5.58 µM [inhibitor, full curve]	–
CC(NC(=O)Oc1ccccc1)C(c1cccs1)N1CCOCC1 (centres undefined)	–	inactive: 3.56%
COc1cc(-c2nc3ccc(Cl)cn3c2Nc2ccc3c(c2)OCCO3)ccc1O	inconclusive: 10 µM [inhibitor, partial curve]	–
CCC(C)n1c(O)c(/C=N/Nc2nc3c(c(=O)n(C)c(=O)n3C)n2C)c(=O)[nH]c1=S (centres undefined)	inconclusive: 35.5 µM [inhibitor, single point]	–
Cc1ccc2c(CN3CC=C(c4ccccc4)CC3)cc(=O)oc2c1C	inconclusive: 17.6 µM [activator, partial curve]	–
Cc1cc2c(s1)Nc1ccccc1N=C2N1CCN(C)CC1	active: 5.62 µM	–
CC/C(=N\Nc1ccccc1)c1c(O)n(-c2ccc(OC)cc2)c(=O)[nH]c1=O	inconclusive: 35.5 µM [inhibitor, partial curve]	–
COc1cccc(CNC(=O)c2cc3c(-c4ccccc4F)nn(C)c3s2)c1	inconclusive: 44.7 µM [inhibitor, single point]	–
O=C1CC(N2CC=C(c3ccccc3)CC2)C(=O)N1c1ccc(F)cc1 (centres undefined)	inconclusive: 22.4 µM [activator, partial curve]	–
Oc1ccccc1/C=N/NP(=S)(c1ccccc1)c1ccccc1	–	inactive: -2.56%
CCOC(=O)c1c(/N=C/c2c(O)n(-c3ccccc3F)c(=S)[nH]c2=O)sc2c1CCCC2	inconclusive: 39.8 µM [inhibitor, partial curve]	–
Oc1cc2c(cc1O)[C@H]1c3ccccc3CN[C@@H]1CC2	active: 2.51 µM	–

Compound	Potency	activity change, negative = inhibition
COc1ccc(NC2CC(=O)N(C(C)C)C2=O)cc1 (centres undefined)	inconclusive: 20 µM [inhibitor, single point]	–
Cc1ccc(-n2nc(C)c3c2NC(=O)CSC3c2ccc(O)cc2)cc1Cl (centres undefined)	inconclusive: 17.8 µM [inhibitor, partial curve]	–
COc1cc(Br)cc(CN2CCN(C)CC2)c1O	inconclusive: 15.8 µM [inhibitor, partial curve]	–
O=c1[nH]c(CN2CC=C(c3ccccc3)CC2)nc2scc(-c3ccccc3)c12	inconclusive: 35.5 µM [activator, single point]	–
COc1cc(O)c(C(=O)O)c(-c2cc(O)c(O)cc2C)c1	inconclusive: 15.8 µM [inhibitor, partial curve]	–
O=C(Cc1cc(=O)[nH][nH]1)N/N=C/c1ccccc1Cl	inconclusive: 39.8 µM [inhibitor, single point]	–
CC(C)Sc1nnc([C@@H](N)Cc2ccccc2)o1	inconclusive: 11.2 µM [activator, partial curve, poor fit]	–
CC1Oc2cc3c(-c4c(O)cc(O)c5c(O)c6c(cc45)OC(C)C(C)C6=O)c(O)cc(O)c3c(O)c2C(=O)C1C (centres undefined)	inconclusive: 9.92 µM [inhibitor, partial curve]	–
O=C(Nc1ccc(OC(F)(F)F)cc1)Oc1ccccc1N1CCCCC1	inconclusive: 8.84 µM [inhibitor, partial curve]	–
CC1CN(O)C2CCc3nonc3C12O (centres undefined)	inconclusive: 31.6 µM [inhibitor, single point]	–
COc1cc(C(c2c(O)c3ccccc3oc2=O)c2c(C)n(C)n(-c3ccccc3)c2=O)ccc1O (centres undefined)	inconclusive: 12.6 µM [inhibitor, partial curve]	–
COc1cc(N)ccc1Cc1ccc(N)cc1OC	inconclusive: 20 µM [inhibitor, partial curve]	–
CN(C(=O)CN1CC=C(c2ccccc2)CC1)c1c(N)n(Cc2ccccc2)c(=O)[nH]c1=O	inconclusive: 22.4 µM [activator, single point]	–
COc1ccc(-n2c(O)c(/C(C)=N/Nc3ccccc3)c(=O)[nH]c2=O)cc1	inconclusive: 11.2 µM [inhibitor, partial curve]	–
Cc1ccc(/C=C2\C(=O)NC(=S)N(c3ccc(F)cc3)C2=O)o1	inconclusive: 25.1 µM [inhibitor, partial curve]	–
COc1cc(C(CN)CC(=O)O)ccc1O (centres undefined)	inconclusive: 35.5 µM [inhibitor, partial curve]	–
Cc1ccsc1/C=N/NC(=O)Cc1cc(=O)[nH][nH]1	inconclusive: 25.1 µM [inhibitor, partial curve]	–
CC1CCC(NC(=O)c2cc3c(=O)n(C)c4ccccc4c3n2C)CC1 (centres undefined)	inconclusive: 100 µM [inhibitor, partial curve]	–
C/C(=N\Nc1ccccc1)c1c(O)n(Cc2ccccc2)c(=O)[nH]c1=O	inconclusive: 11.2 µM [inhibitor, full curve]	–
Cc1cc(O)c2c(c1)OC(C)(C)C1=C2CC(C)CC1 (centres undefined)	inconclusive: 31.6 µM [inhibitor, partial curve]	–
C/C(CC(c1ccccc1)c1c(O)c2ccccc2oc1=O)=N\Nc1ccc([N+](=O)[O-])cc1[N+](=O)[O-] (centres undefined)	inconclusive: 14.1 µM [inhibitor, partial curve]	–
C=C(C)Cn1c(-c2cccc([N+](=O)[O-])c2)n[nH]c1=S	inconclusive: 31.4 µM [inhibitor, single point]	–

Compound	Potency	activity change, negative = inhibition
Cc1ccc(N2C(=O)/C(=C/c3ccc(CN(CCC#N)S(C)(=O)=O)o3)C(=O)NC2=S)cc1	inconclusive: 28 µM [inhibitor, single point]	–
COCCCOc1ccnc(CS(=O)c2nc3ccccc3[nH]2)c1C (centres undefined)	inconclusive: 35.5 µM [inhibitor, partial curve]	–
COc1ccc(CN2CCNC(=O)C2CC(=O)N(C)Cc2ccncn2)c(OC)c1 (centres undefined)	inconclusive: 44.7 µM [activator, single point]	–
Cn1c(=O)n(C)c2cc(N3CCCC3)c(NC(=O)Nc3ccccc3)cc21	inconclusive: 7.94 µM [inhibitor, partial curve]	–
COc1ccc2cc1Oc1ccc(cc1)C[C@H]1c3cc(c(OC)cc3CCN1C)Oc1c(O)c(OC)cc3c1[C@H](C2)N(C)CC3	inconclusive: 12.6 µM [inhibitor, partial curve]	–
CCCc1[nH][nH]c(=O)c1C(c1ccc(Cl)cc1)C(C#N)C#N (centres undefined)	inconclusive: 14 µM [inhibitor, partial curve]	–
O=C1NC(=O)N(c2ccccc2)C(=O)/C1=C/c1coc2ccc(O)cc2c1=O	inconclusive: 12.6 µM [inhibitor, partial curve]	–
Cc1[nH]c(=S)c(C#N)c2c1CCCC2	inconclusive: 22.4 µM [inhibitor, partial curve]	–
CC(=O)c1c(C)n(C2CCCCC2)c2ccc(O)cc12	inconclusive: 24.9 µM [inhibitor, partial curve]	–
O=c1c2ccccc2[se]n1-c1ccccc1	–	inactive: -6.15%
c1ccc2c(c1)Nc1ccccc1S2	active: 17.8 µM	–
O=C(O)c1ccc[nH]c1=S	inconclusive: 6.31 µM [inhibitor, partial curve]	–
COc1ccc(N2CC2c2ccncc2)cc1 (centres undefined)	inconclusive: 6.31 µM [inhibitor, single point]	–
O=C1NC(=O)C(=CN2CCc3ccccc32)C(=O)N1	inconclusive: 11.1 µM [inhibitor, partial curve]	–
Oc1ccc(/C=N/NP(=S)(c2ccccc2)c2ccccc2)cc1	–	inactive: -15.5%
Cc1ccc(C(c2nnnn2Cc2ccccc2)N2CC=C(c3ccc(F)cc3)CC2)cc1 (centres undefined)	inconclusive: 28.2 µM [activator, single point]	–
Cc1ccc(-c2nc3ccc(Cl)cn3c2Nc2ccccc2C)s1	inconclusive: 3.98 µM [inhibitor, full curve, poor fit]	–
Cc1ccc(-n2nc(C)c3c2OC(N)=C(C#N)C3c2cccs2)cc1 (centres undefined)	inconclusive: 19.8 µM [inhibitor, partial curve]	–
Cc1ccc(-n2c(O)c(/C=N/N3CCCCCC3)c(=O)[nH]c2=O)cc1C	inconclusive: 3.16 µM [inhibitor, full curve]	–
Cc1ccc(N2C(=O)NC(=O)/C(=C\c3cc(C)n(-c4ccc(C(=O)O)cc4)c3C)C2=O)cc1	–	inactive: 4.53%
